# Assay results published in patent US5698411A, “Method for determining activity of enzymes in metabolically active whole cells” (priority 1995, dated 1997).
# Numbered stars: 1 amine (or outer) side, 2 acyl side, 3 side chain; on linkers, the order of the positions; unused ones are H or OH. Bridge positions count the residues as written; N and C are the ends. Peptide text beside a SMILES is read from it. I, II: the chains in the order shown. Rhodamine110 = O=C1OC2(c3ccc(N[*:1])cc3Oc3cc(N[*:2])ccc32)c2ccccc21
# Assays:
# Type in all cases: cell-based, human
# monocytes = assay: ratio of enzyme activity in disease, monocytes (Table 5)
# lymphocytes = assay: ratio of enzyme activity in disease, lymphocytes (Table 5)
# granulocytes = assay: ratio of enzyme activity in disease, granulocytes (Table 5)
Molecule,Dermatomyositis Ratio Grans (granulocytes),Inflam. Dis. Grans (granulocytes),JRA Ratio Grans (granulocytes),Kawasaki's Dis. Grans (granulocytes),Lupus Ratio Grans (granulocytes),Rheumatic Fever Grans (granulocytes),Inflam Dis Lymphs (lymphocytes),further results
"CC(=O)Oc1ccc2c(c1)Oc1cc(OC(C)=O)ccc1C21OC(=O)c2ccccc21 [FDA, fluorescein diacetate, reference compound]",0.92,0.50,1.12,0.31,1.01,0.67,,Rheumatic Fever Monos (monocytes; monos): 0.53; Rheumatic Fever Lymphs (lymphocytes): 0.90
"CC(C)C[C@H](N)C(=O)Nc1ccc2c(c1)Oc1cc(NC(=O)[C@@H](N)CC(C)C)ccc1C21OC(=O)c2ccccc21 [LEU, (Leu)2 Rho 110]",1.31,0.58,1.43,0.33,2.03,0.98,,JRA Ratio Lymphs (lymphocytes): 1.64
"C[C@H](N)C(=O)Nc1ccc2c(c1)Oc1cc(NC(=O)[C@H](C)N)ccc1C21OC(=O)c2ccccc21 [ALA, (Ala)2 Rho 110]",0.97,0.80,1.21,1.31,1.08,1.03,,
"O=C1OC2(c3ccc(OC4O[C@H](CO)[C@@H](O)[C@H](O)[C@H]4O)cc3Oc3cc(OC4O[C@H](CO)[C@@H](O)[C@H](O)[C@H]4O)ccc32)c2ccccc21 (stereo partly drawn) [DGLUC, (D-glucose)2 fluorescein]",1.18,0.38,0.98,0.22,0.77,0.13,0.45,Inflam. Dis. Monos (monocytes; monos): 0.28
"N=C(N)NCCC[C@H](N)C(=O)NCC(=O)N[C@@H](CCC(=O)O)C(=O)N[C@@H](CO)C(=O)Nc1ccc2c(c1)Oc1cc(NC(=O)[C@H](CO)NC(=O)[C@H](CCC(=O)O)NC(=O)CNC(=O)[C@@H](N)CCCNC(=N)N)ccc1C21OC(=O)c2ccccc21 (stereo partly drawn) [RGES, (Arg-Gly-Glu-Ser)2 Rho 110] (I: H-RGES / II: H-RGES; linker I:C-II:C via Rhodamine110)",1.62,0.76,1.01,0.36,1.36,1.54,1.23,
"O=C(NCC(=O)N1CCC[C@H]1C(=O)Nc1ccc2c(c1)Oc1cc(NC(=O)[C@@H]3CCCN3C(=O)CNC(=O)OCc3ccccc3)ccc1C21OC(=O)c2ccccc21)OCc1ccccc1 [Z-GP-M, (carbobenzyloxycarbonyl-Gly-Pro)2 Rho 110 (modified)]",2.76,0.66,1.46,2.83,1.94,2.98,1.04,
"C[C@H](NC(=O)[C@@H](N)CCCCN)C(=O)Nc1ccc2c(c1)Oc1cc(NC(=O)[C@H](C)NC(=O)[C@@H](N)CCCCN)ccc1C21OC(=O)c2ccccc21 [KA, (Lys-Ala)2 Rho 110]",1.16,0.05,0.10,0.99,1.64,1.02,,JRA Ratio Lymphs (lymphocytes): 0.10
"CC(C)[C@H](N)C(=O)N[C@@H](CCCCN)C(=O)Nc1ccc2c(c1)Oc1cc(NC(=O)[C@H](CCCCN)NC(=O)[C@@H](N)C(C)C)ccc1C21OC(=O)c2ccccc21 [VK-M, (Val-Lys)2 Rho 110 (modified)]",0.15,3.39,9.49,0.72,0.89,0.48,4.64,
(Gly)2 Rho 110,1.12,0.17,0.30,2.30,1.42,0.56,0.16,"Dermatomyositis Ratio Monos (monocytes; Dermatomyositis, monos): 1.01; Inflam. Bowel Dis. Lymphs (monocytes; Inflam. Bowel Dis., MONOCYTES section): 1.84; Inflam. Dis. Monos (monocytes; monos): 0.35; JRA Ratio Monos (monocytes; JRA, monos): 1.11; Kawasaki's Dis. Monos (monocytes; Kawasaki's, monos): 3.83; Lupus Ratio Monos (monocytes; Lupus, monos): 6.00; Rheumatic Fever Monos (monocytes; monos): 2.06; Dermatomyositis Ratio Lymphs (lymphocytes; Dermatomyositis): 1.30; Inflam. Bowel Dis. Lymphs (lymphocytes; Inflam. Bowel Dis.): 1.97; JRA Ratio Lymphs (lymphocytes): 0.17; Kawasaki's Ratio Dis. Lymphs (lymphocytes): 1.94; Lupus Ratio Lymphs (lymphocytes): 1.64; Rheumatic Fever Lymphs (lymphocytes): 2.09; Inflam. Bowel Dis. Lymphs (granulocytes; Inflam. Bowel Dis., […]): 1.78"
"C[C@H](NC(=O)CNC(=O)[C@H](Cc1ccccc1)NC(=O)CN)C(=O)Nc1ccc2c(c1)Oc1cc(NC(=O)[C@H](C)NC(=O)CNC(=O)[C@H](Cc3ccccc3)NC(=O)CN)ccc1C21OC(=O)c2ccccc21 [GFGA, (Gly-Phe-Gly-Ala)2 Rho 110] (I: H-GFGA / II: H-GFGA; linker I:C-II:C via Rhodamine110)",1.85,,2.26,1.93,0.10,2.10,,
"CC(=O)Oc1ccc2c(c1)Oc1cc(OC(C)=O)ccc1C21OC(=O)c2ccccc21 [FDA-NAF, fluorescein diacetate, reference compound]",0.97,0.08,0.23,0.39,0.72,0.80,,Kawasaki's Ratio Dis. Lymphs (lymphocytes): 0.30
"C[C@@H](O)[C@H](NC(=O)OCc1ccccc1)C(=O)N1CCC[C@H]1C(=O)Nc1ccc2c(c1)Oc1cc(NC(=O)[C@@H]3CCCN3C(=O)[C@@H](NC(=O)OCc3ccccc3)[C@@H](C)O)ccc1C21OC(=O)c2ccccc21 [Z-TP6.5, (carbobenzyloxycarbonyl-Thr-Pro)2 Rho 110 (pH 6.5)]",2.79,,5.70,4.21,2.19,4.73,1.71,
"CC(C)[C@H](N)C(=O)N[C@@H](CCCCN)C(=O)Nc1ccc2c(c1)Oc1cc(NC(=O)[C@H](CCCCN)NC(=O)[C@@H](N)C(C)C)ccc1C21OC(=O)c2ccccc21 [VK, (Val-Lys)2 Rho 110]",1.12,0.85,1.26,1.30,1.04,0.60,1.29,
"O=C(NCC(=O)N1CCC[C@H]1C(=O)Nc1ccc2c(c1)Oc1cc(NC(=O)[C@@H]3CCCN3C(=O)CNC(=O)OCc3ccccc3)ccc1C21OC(=O)c2ccccc21)OCc1ccccc1 [Z-GP, (carbobenzyloxycarbonyl-Gly-Pro)2 Rho 110]",1.44,0.83,1.24,2.54,1.82,2.51,1.07,
"O=C1OC2(c3ccc(OC4O[C@H](CO)[C@H](O)[C@H](O)[C@H]4O)cc3Oc3cc(OC4O[C@H](CO)[C@H](O)[C@H](O)[C@H]4O)ccc32)c2ccccc21 (stereo partly drawn) [GALAC, (D-galactose)2 fluorescein]",1.76,,3.42,2.32,1.01,1.16,1.40,
"O=C1OC2(c3ccc(OP(=O)(O)O)cc3Oc3cc(OP(=O)(O)O)ccc32)c2ccccc21 [DPO4, (PO4)2 fluorescein]",0.88,0.38,0.98,0.69,0.71,0.24,,Lupus Ratio Lymphs (lymphocytes): 0.90
